Source: the supplement of paper PMC8728848
The list shows a part of the results.

Legend:
Experiment in all cases: glycan array binding signal (z-score within array); higher = stronger binding
Conditions in all cases: glycan notation: IUPAC condensed, linker removed
[1] = molecular target: GlcNAc(b1-4)GlcNAc(b1-4)GlcNAc(b1-4)GlcNAc(b1-4)GlcNAc
Summary of the method: (§1)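 Glycan array binding is given as a within-array Z-score, which can be read as non-binding when negative. The arrays, 3228 of them, came from the Consortium for Functional Glycomics database and were retained only where the protein sequence was available. Z-scores were averaged across arrays of the same protein sequence at different concentrations or buffers and across linkers.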

[2] = molecular target: GlcNAc(b1-4)GlcNAc(b1-4)GlcNAc(b1-4)GlcNAc(b1-4)GlcNAc(b1-4)GlcNAc
Summary of the method: as §1

[3] = molecular target: GlcNAc(b1-4)[GlcNAc(b1-6)]GalNAc
Summary of the method: as §1

[4] = molecular target: GlcNAc(b1-6)Gal(b1-4)GlcNAc
Summary of the method: as §1

GlcNAc(b1-6)GalNAc = molecular target: GlcNAc(b1-6)GalNAc
Summary of the method: as §1

Kdn(a2-3)Gal(b1-3)GlcNAc = molecular target: Kdn(a2-3)Gal(b1-3)GlcNAc
Summary of the method: as §1

Kdn(a2-3)Gal(b1-4)GlcNAc = molecular target: Kdn(a2-3)Gal(b1-4)GlcNAc
Summary of the method: as §1

[5] = molecular target: Man(a1-2)Man(a1-2)Man(a1-3)Man
Summary of the method: as §1

[6] = molecular target: Man(a1-2)Man(a1-2)Man(a1-6)[Man(a1-3)]Man
Summary of the method: as §1

Man(a1-2)Man(a1-3)Man = molecular target: Man(a1-2)Man(a1-3)Man
Summary of the method: as §1

[7] = molecular target: Man(a1-2)Man(a1-3)[Man(a1-2)Man(a1-6)]Man
Summary of the method: as §1

[8] = molecular target: Man(a1-2)Man(a1-3)[Man(a1-2)Man(a1-6)]Man(a1-6)[Man(a1-2)Man(a1-2)Man(a1-3)]Man(b1-4)GlcNAc(b1-4)GlcNAc
Summary of the method: as §1

[9] = molecular target: Man(a1-2)Man(a1-3)[Man(a1-6)]Man(a1-6)[Man(a1-2)Man(a1-3)]Man(b1-4)GlcNAc(b1-4)GlcNAc
Summary of the method: as §1

[10] = molecular target: Man(a1-2)Man(a1-6)[Man(a1-3)]Man(a1-6)[Man(a1-2)Man(a1-2)Man(a1-3)]Man(b1-4)GlcNAc(b1-4)GlcNAc
Summary of the method: as §1

Man(a1-3)[Man(a1-6)]Man = molecular target: Man(a1-3)[Man(a1-6)]Man
Summary of the method: as §1

[11] = molecular target: Man(a1-3)[Man(a1-6)]Man(a1-6)[Man(a1-2)Man(a1-3)]Man(b1-4)GlcNAc(b1-4)GlcNAc
Summary of the method: as §1

[12] = molecular target: Man(a1-3)[Man(a1-6)]Man(a1-6)[Man(a1-3)]Man(b1-4)GlcNAc(b1-4)GlcNAc
Summary of the method: as §1

[13] = molecular target: Man(a1-3)[Man(a1-6)]Man(b1-4)GlcNAc(b1-4)GlcNAc
Summary of the method: as §1

Man(b1-4)GlcNAc = molecular target: Man(b1-4)GlcNAc
Summary of the method: as §1

Neu5Ac(a2-3)Gal = molecular target: Neu5Ac(a2-3)Gal
Summary of the method: as §1

[14] = molecular target: Neu5Ac(a2-3)Gal(b1-3)GalNAc
Summary of the method: as §1

[15] = molecular target: Neu5Ac(a2-3)Gal(b1-3)GalNAc(b1-3)Gal(a1-4)Gal(b1-4)Glc
Summary of the method: as §1

[16] = molecular target: Neu5Ac(a2-3)Gal(b1-3)GalNAc(b1-3)Gal(b1-4)GlcNAc
Summary of the method: as §1

[17] = molecular target: Neu5Ac(a2-3)Gal(b1-3)GalNAc(b1-4)[Neu5Ac(a2-3)]Gal(b1-4)Glc
Summary of the method: as §1

[18] = molecular target: Neu5Ac(a2-3)Gal(b1-3)GalNAc6S
Summary of the method: as §1

[19] = molecular target: Neu5Ac(a2-3)Gal(b1-3)GlcNAc
Summary of the method: as §1

[20] = molecular target: Neu5Ac(a2-3)Gal(b1-3)GlcNAc6S
Summary of the method: as §1

[21] = molecular target: Neu5Ac(a2-3)Gal(b1-3)[Fuc(a1-4)]GlcNAc
Summary of the method: as §1

[22] = molecular target: Neu5Ac(a2-3)Gal(b1-3)[Fuc(a1-4)]GlcNAc(b1-3)Gal(b1-4)[Fuc(a1-3)]GlcNAc
Summary of the method: as §1

[23] = molecular target: Neu5Ac(a2-3)Gal(b1-3)[Neu5Ac(a2-3)Gal(b1-4)]GlcNAc
Summary of the method: as §1

[24] = molecular target: Neu5Ac(a2-3)Gal(b1-3)[Neu5Ac(a2-6)]GalNAc
Summary of the method: as §1

Neu5Ac(a2-3)Gal(b1-4)Glc = molecular target: Neu5Ac(a2-3)Gal(b1-4)Glc
Summary of the method: as §1

[25] = molecular target: Neu5Ac(a2-3)Gal(b1-4)GlcNAc
Summary of the method: as §1

[26] = molecular target: Neu5Ac(a2-3)Gal(b1-4)GlcNAc(b1-2)Man(a1-3)[Neu5Ac(a2-3)Gal(b1-4)GlcNAc(b1-2)Man(a1-6)]Man(b1-4)GlcNAc(b1-4)GlcNAc
Summary of the method: as §1

[27] = molecular target: Neu5Ac(a2-3)Gal(b1-4)GlcNAc(b1-3)Gal(b1-4)GlcNAc
Summary of the method: as §1

[28] = molecular target: Neu5Ac(a2-3)Gal(b1-4)GlcNAc(b1-3)Gal(b1-4)GlcNAc(b1-3)Gal(b1-4)GlcNAc
Summary of the method: as §1

[29] = molecular target: Neu5Ac(a2-3)Gal(b1-4)GlcNAc(b1-3)Gal(b1-4)[Fuc(a1-3)]GlcNAc
Summary of the method: as §1

B1: F17eG (Escherichia coli), Q9RH92 (protein)
chain: MTNFYKVFLAVFILVCCNISHAAVSFIGSTENDVGPSQSSYSRTHAMDNLPFVYNTGYNIGYQNANVWRISGGFCVGLDGKVDLPVVGSLDGQSIYGLTEEVGLLIWMGDTNYSRGTAMSGNSWENVFSGWCVGNYVSTQGLSVHVRPVILKRNSSAQYSVQKTSIGSIRMRPYNGSSAGSVQTTVNFSLNPFTLNDTVTSCRLLTPSAVNVSLAAISAGQLPSSGDEVVAGTTSLKLQCDAGVTVWATLTDATTPSNRSDILTLTGASTATGVGLRIYKNTDSTPLKFGPDSPVKGNENQWQLSTGTETSPSVRLYVKYVNTGEGINPGTVNGISTFTFSYQ
- glycan array binding signal (z-score) [1]: -0.28
- glycan array binding signal (z-score) [2]: -0.275
- glycan array binding signal (z-score) [3]: 3.15
- glycan array binding signal (z-score) [4]: 3.4
- glycan array binding signal (z-score) (GlcNAc(b1-6)GalNAc): 3.67
- glycan array binding signal (z-score) (Kdn(a2-3)Gal(b1-3)GlcNAc): -0.308
- glycan array binding signal (z-score) (Kdn(a2-3)Gal(b1-4)GlcNAc): -0.316
- glycan array binding signal (z-score) [5]: -0.31
- glycan array binding signal (z-score) [6]: -0.289
- glycan array binding signal (z-score) (Man(a1-2)Man(a1-3)Man): -0.302
- glycan array binding signal (z-score) [7]: -0.307
- glycan array binding signal (z-score) [8]: -0.312
- glycan array binding signal (z-score) [9]: -0.315
- glycan array binding signal (z-score) [10]: -0.309
- glycan array binding signal (z-score) (Man(a1-3)[Man(a1-6)]Man): -0.309
- glycan array binding signal (z-score) [11]: -0.148
- glycan array binding signal (z-score) [12]: -0.311
- glycan array binding signal (z-score) [13]: -0.265
- glycan array binding signal (z-score) (Man(b1-4)GlcNAc): -0.315
- glycan array binding signal (z-score) (Neu5Ac(a2-3)Gal): -0.277
- glycan array binding signal (z-score) [14]: -0.308
- glycan array binding signal (z-score) [15]: -0.313
- glycan array binding signal (z-score) [16]: -0.2
- glycan array binding signal (z-score) [17]: -0.312
- glycan array binding signal (z-score) [18]: -0.29
- glycan array binding signal (z-score) [19]: -0.312
- glycan array binding signal (z-score) [20]: -0.226
- glycan array binding signal (z-score) [21]: -0.312
- glycan array binding signal (z-score) [22]: -0.097
- glycan array binding signal (z-score) [23]: -0.309
- glycan array binding signal (z-score) [24]: -0.295
- glycan array binding signal (z-score) (Neu5Ac(a2-3)Gal(b1-4)Glc): -0.313
- glycan array binding signal (z-score) [25]: -0.298
- glycan array binding signal (z-score) [26]: -0.307
- glycan array binding signal (z-score) [27]: -0.245
- glycan array binding signal (z-score) [28]: -0.303
- glycan array binding signal (z-score) [29]: -0.24
